Values quoted from earlier work in US9850475B2 (priority 2011, dated 2017).

Conditions: negatively charged side chain

N[C@@H](CS(=O)(=O)O)C(=O)O [cysteic acid]
pKa of side chain: 1.9
